Test system: HSV-1
Experiment: Effect of LTB4 on the biological activity of acyclovir, HSV-1-infected PBMC, plaque assay on Vero cells
Conditions: suboptimal concentration of acyclovir, four days of culture
Method: PBMC (10^6 cells/ml) were infected with HSV-1 and treated with acyclovir or with LTB4 or with a combination of both drugs. A suboptimal concentration of acyclovir was used to assess the effect of LTB4 on the biological activity of acyclovir. After four days of culture, cell-free supernatants containing viral particles were harvested and the number of particles was titrated by plaque assay on Vero cell monolayers. Briefly, 0.2 ml of serially diluted (log10) culture supernatants to be tested were added to confluent monolayers of Vero cells in duplicate for 1 hour at 37° C. Unadsorbed particles were removed by washing and minimal media containing 1% methyl cellulose was added to the monolayers. Between days 5 to 7 post-infection, the cultures were fixed with methanol and stained with crystal violet. The number of plaques (PFU: plaque forming units), reflective of the number of infectious particles, were counted and the viral titer from each experimental group determined, and the effective inhibitory dose calculated. […] The results illustrated in FIG. 10 are representative of five others.

CCCCC/C=C\C[C@@H](O)/C=C/C=C/C=C\[C@@H](O)CCCC(=O)O [LTB4, 5S,12R-dihydroxy-6,8,10,14 (Z,E,E,Z)-eicosatetraenoic acid]
effect of LTB4 on antiviral effect of acyclovir in co-culture: does not reduce the antiviral effect of acyclovir
